Assay results taken from PMC8810914 (Biochemistry, 2021).

System: A/Soloman Island/3/2006 (H1N1)
Conditions: read-out: EC50, inhibition of viral replication

Structure (SMILES) | EC50 [nM]
C[C@@H](N)C12CC3CC(CC(C3)C1)C2 [(R)-rimantadine] | 19.6
C[C@H](N)C12CC3CC(CC(C3)C1)C2 [(S)-rimantadine] | 24.4
